Reference: the supplement of paper PMC11417369
The list shows a part of the results.

system: PfAP2-HC AP2 domain (GST-tagged); test: gcPBM binding intensity (ln(normalized median fluorescence intensity)); higher = stronger DNA binding
Procedure, shortened: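 An Agilent 4 × 180k array of primer-extended double-stranded 36-bp intergenic genomic probes, with negative controls, was incubated for 1 h with GST-tagged P. falciparum DNA-binding domains expressed in E. coli. Alexa488 anti-GST antibody detected bound protein, scanned at 488 nm. Binding intensity is the highest Masliner-normalised natural-log median intensity across replicate spots of either probe orientation.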

Sequence | gcPBM binding intensity (ln)
TACACCTGCACGATTGCACACAAATATGTTTTGAAG [CACACA_site8656] | 9.95
TTATTATTAAAACACACACACAAAAAAAAAAAAAAA [CACACA_site1480] | 10.2
AAAAAAAAAAAAAAAACACACATGTATAATATAATA [CACACA_site2209] | 9.85
TATAGATGTGGTTTATGTACATACTATAAAAAATCA [XGTACX_site1400] | 9.6
TTATATATATATATATAATATATATATATTTAAATA [XGTACX_negctrl_site453] | 9.31
TATATACCTATATATACACACAAATACATAAGCTTC [CACACA_site1369] | 9.95
AAATATTTTTTAATGTGTACATAGAACATATATATA [XGTACX_site3136] | 9.64
ATAATATATATATTATGTACATATAAATTTTTTTTT [XGTACX_site5826] | 9.66
TATAACTATAAAAGGAGTACTATATATATATATATA [XGTACX_site1388] | 9.47
ACTTATTTATTTTTAGTGCATTTAGTTTTATTTTAT | 9.86
AGTATACACAAACACACACACACAAAAAAAAAAAAA [CACACA_site8036] | 10.7
TCTACAAAATTATCATGTACATATTATTATAATTAT [XGTACX_site6585] | 9.73
AATAGTACAAAAAAAAAAAAAAAAAAAAAAAAAAAA [CACACA_negctrl_site1376] | 8.9
TAAAAAGAAAAAAAGAGTACAAACAAAATAATAATT [XGTACX_site6071] | 9.86
TATTTGCAATGCAAATGTACATGAATTTTTTTAATG [XGTACX_site7474] | 9.39
TTTTTTAAAAAACAAACACACACGTAGAAAAAAAAA [CACACA_site826] | 9.97
TAATTATATGGATACACACACATACATTTACATAAC [CACACA_site5744] | 10.2
TTTTTTTATTTTTGTTGTACTTATAATTCTGTAAAA [XGTACX_site7344] | 9.5
TATAAATATAAATACACACACACACGCCAAAGCGTA [CACACA_site6181] | 11
AAGAAAAATGTGTTTTTTTTTTTTTTTTTTTTCAAT [TGCATGCA_negctrl_site404] | 9.32
CTTTTTTTTTTAAATAGTACTTTCTCGTATACTCAT [XGTACX_site1842] | 9.63
TGTGAAATAAAATTTATACACACTTGCTAAATGATC [CACACA_site181] | 9.65

Sequence | gcPBM binding intensity (ln)
TTTTTTATTTATTGTTATACATCTTACTACTTATAA [GTGCAC_negctrl_site381] | 9.93
AATATATTTATATATAGTACTTTTATAATATCGTTT [XGTACX_site6658] | 9.63
AATACACATAATACATGTACTCACATTGTTATAACA [XGTACX_site4129] | 9.74
GATATGATTAACTTATGTTATTCTTGATGATTACGT [CACACA_negctrl_site354] | 9.61
TACAAATTAATATGTACACACAAATATAAATATGTA [CACACA_site7016] | 9.79
TACGTTATATACAACTGTACTTGGATAATTATTAAC [XGTACX_site5614] | 9.73
AAGTTTTTTTCTTTTTTTCTCTCTTTTTTTTTTTTT [XGTACX_negctrl_site613] | 9.52
TTTTCTTTTTTGAACTGTACGCGTAAATTTAAAAAG [XGTACX_site882] | 9.36
TATATACTCAGACATACACACAAATAAAAAAACACC [CACACA_site5820] | 10.8
TTATGTGATTTTAATTGTACATAAATATTTGTTAAC [XGTACX_site3489] | 9.37
CACGCATACAGACACACACACACACGGATATAAATA [CACACA_site6445] | 11.6
AACAAAAAAACAAACACACACACACGCATATTTATA [CACACA_site7680] | 11.2
TGAACTCATAGGAAAACACACATATGTGTAATATAT [CACACA_site4267] | 9.9
AAATATAGTATTAAAACACACATTTATATAAAAAGG [CACACA_site1482] | 9.86
AAAAACAACACAGATAAATTAACACACACACACATA [XGTACX_negctrl_site588] | 10.7
AAAGAAAACGGACTTTGTACTTAAATATAATATAAA [XGTACX_site8585] | 9.5
TTTTTTTATACAATTTTATATATTAAATATTATAAT [CACACA_negctrl_site226] | 9.53
TAAAGTTATATATTATGTACATATTTGTATACATTT [XGTACX_site2516] | 9.82
CAATAAATCGAAATCGTGCACGGACACATGCAGTAG | 9.75
GGTTCATTTATATGGAGTACAAAAAATATGTATATA [XGTACX_site8209] | 9.5
ATATATATAATAAGTGGTACAAGTTATTCATTAAAT [XGTACX_site7063] | 9.77
TTTTTATATAAATAATGTACATTTGGTTTTATTATA [XGTACX_site2125] | 9.61

Sequence | gcPBM binding intensity (ln)
ACAAAAATATTATATTGTACATTATTAGTTCATATT [XGTACX_site6750] | 9.77
AACACCCACAGACACACACACAAAAATGATTAAAAA [CACACA_site2433] | 10.9
TATTTGTATAAATAAAAATAATATATATCAAATAAC [CACACA_negctrl_site218] | 9.31
ATTTGCTCACAAGAAGCACACAAAAAAAGAAAAAAA [CACACA_site9338] | 9.57
CAAAAAATTTGACGTAGTACTTAAAAAAAAAAAAAA [XGTACX_site4523] | 9.25
TGTGTGTGTTCATGGGTGCTTTAATACTATTATAGG [GTGCAC_site9465] | 10.3
TATTATAAAAATATTCAGATACATTAACTTACTTTT [XGTACX_negctrl_site4] | 9.58
TATTTGCTACATATATGTACTAAAAACTTTTTGCTT [XGTACX_site2362] | 9.79
TATCAATTTTTCTGGCTATCCAATTAGGGGAAGCCA [CACACA_negctrl_site1045] | 9.05
TCTTTAACAAGTTAAACACACATACATAAATACATA [CACACA_site5406] | 9.7
TTATGTCATAAATGCACACATATACATTGTTTTGAT [CACACA_site646] | 9.92
ATATAAATAAACAGGTGTACTATAATGTTCATAGTA [XGTACX_site1553] | 9.81
GGGAAAATATTTGGGTGTACAAACAAATTAGCTAGC [XGTACX_site6795] | 9.63
TATGATTTCACATAATGTACTTGCTAATTCGTGAAT [XGTACX_site1408] | 9.52
AAGAAAATATAAAATGCACACTATAAATTGTATTTA [CACACA_site4257] | 9.79
TAATTATATATATATGCATGTTATAATTTTTATTTT [TGCATGCA_site78] | 9.68
TTTACAGGAAAAAATACACACATTATTTTACCTTAT [CACACA_site2833] | 9.76
CAATAAAAATTAAAATGTACAAATAAATATAAATAT [XGTACX_site7265] | 9.76
ACATGCCAAAATCTAATACAATAATAATAAAAAAAA [XGTACX_negctrl_site160] | 9.58
CATTTACATGCCAACATGCACTGAACAATCTTTATA [GTGCAC_site9797] | 9.68
ACAAAACTTTTAAGAACACACAAAAATGTACTATCG [CACACA_site7245] | 9.67
TTTTATGAATAATTATGTACATAACAAATGATATAT [XGTACX_site8318] | 9.61

Sequence | gcPBM binding intensity (ln)
TACAAAAAAAAATAAAATACATATATATATATATAT [XGTACX_negctrl_site608] | 10.5
CCCTATATAAATAGCTGTACATTTGAACATGTTCAG [XGTACX_site2187] | 9.48
GAAAATGAAATCCTTGCATGTAAAATTAAAATAGAA [TGCATGCA_site569] | 9.71
GTAGTAATAAATTAAAGTACAGAATATATTATACTA [XGTACX_site2809] | 9.79
TTTTTTTCTTAAAGATGTACTTTTTAAAAATAATCT [XGTACX_site1429] | 9.36
ATGAATTATAAATATTCACACAATATTTTTCATATG [CACACA_site4484] | 9.6
AGTGTGCTCAGCTTAGCACAAATTGGAATACCATGT [CACACA_negctrl_site367] | 9.7
TAATTATATGTATACACACACATACATTTACATAAC [CACACA_site3238] | 10.3
TTAATTTCTATATACGCATGTATGAATAAGATATTG [TGCATGCA_site202] | 9.36
ATTTTTTTATAAGAAAATTTCTAACGTTAAAAAAAA [CACACA_negctrl_site1367] | 9.22
TATAATTATATATATAGTACAGATTTGTTATGTTTA [XGTACX_site7724] | 9.59
CAAACAAACAAATATACACACTTTTGTATAAAGTAA [CACACA_site5860] | 9.79
AAAAGGGAAATAAAATAAAAAAAGAAACATATATAG [CACACA_negctrl_site455] | 9.61
GATTCTTCACCGTACTCACACATATATATATATATA [CACACA_site5665] | 9.84
TCTTTTTTTTTTAAACGTACATTGCATTATCACGTA [XGTACX_site6873] | 9.6
ATCCATTATTTTTGTTGTACGGGTAACTTTAAAAAG [XGTACX_site2226] | 9.5
TATCTCATAGTATACACACACACACCCACCCATATA [CACACA_site1739] | 10.7
CACACGCACGAACACACACACACACGCATATAAATA [CACACA_site6302] | 10.9
AATATATATATATTCACACATAAAAAAGTAAAAAAA [CACACA_site5040] | 9.83
GACCATATGAATAATGCACACGTTTTAAAATATTAA [CACACA_site5312] | 9.7
TATTTATTATTAAGATGTACATAAAACACTGAATAA [XGTACX_site4246] | 9.69
TGAAAAAGGAAAAAAAAAAAAAAAAAAAAAACGAAA [GTGCAC_negctrl_site555] | 9.38
